# Data from PubChem BioAssay (NCATS).
# Inconclusive results, whose numbers are uncertain, are shown with a selection of clear calls. Potencies of inconclusive entries are left out as doubtful fits. Active and inactive are the calls of the source. Calls come from the whole dose curve; as a rule, active = well fitted inhibition curve with a large enough effect; inconclusive = small, poorly fitted or top-dose-only effect; inactive = no such curve, though single readings can be large or run the other way.
# Experiment: BET inhibitor-based combinations targeting novel dependencies in MECOM-rearranged (r) AML: OCI-AML3 cell line (AID 2202232); note: nearly all actives have a fitted effect of over 35% in size;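 for viability (% of control): plate controls were DMSO vehicle wells for no effect and wells without cells for full effect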
# Conditions: CellTiter-Glo luminescence, 48 h; Potency: OCI-AML3 viability; viability (% of control): at 46 µM (top of the series)
# Procedure, shortened: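 Readout: CellTiter-Glo luminescence. Exposure: 48 h, 11 concentrations, 500 cells/well. Metric: AUC and within-line Z-AUC after DMSO/empty-well normalization.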
# Potency is the fitted concentration of half-maximal effect; tags give direction and shape of the fitted curve.
SMILES,Potency,viability (% of control)
Cn1nnc2c(C(N)=O)ncn2c1=O,inactive,
O=C(O)CCNC(=O)c1ccc(N=Nc2ccc(O)c(C(=O)O)c2)cc1,"inconclusive [inhibitor, partial curve, poor fit]",
CCOCOC[C@H](C[C@H](C)C(=O)NO)NC(=O)c1ccc(Oc2ccccc2)cc1,active: 23.5 µM,
Cc1ccc(Nc2cc(N[C@@H]3CCCC[C@@H]3N)nnc2C(N)=O)nc1C,"inconclusive [inhibitor, partial curve]",
C[C@]12CC[C@H](O)CC1=CC[C@@H]1[C@@H]2CC[C@]2(C)C(c3cccnc3)=CC[C@@H]12,inactive,
CC1CCC(n2c3cnccc3c3cnc(Nc4ccc5c(n4)CCN(C(=O)CO)C5)nc32)CC1 (stereo not given),,inactive: 86.5% [at 8.46 µM]
Nc1nc(OC(c2ccc(-c3cccc(F)c3)cc2)C(F)(F)F)cc(-c2ccc(C[C@@H](N)C(=O)O)cc2)n1 (stereo not given in full),"inconclusive [inhibitor, partial curve, poor fit]",
Cn1ncc(NC(=O)c2nc(-c3c(F)cccc3F)sc2N)c1N1CC[C@@H](N)[C@H](F)CC1,"inconclusive [inhibitor, partial curve, poor fit]",
Cc1ncsc1-c1ccc([C@H](C)NC(=O)[C@@H]2C[C@@H](O)CN2C(=O)[C@@H](NC(=O)COCCCOCCNC(=O)C[C@@H]2N=C(c3ccc(Cl)cc3)c3c(sc(C)c3C)-n3c(C)nnc32)C(C)(C)C)cc1,active: 0.0093 µM,
C=C(C)[C@@H]1CC[C@]2(C(=O)O)CC[C@]3(C)[C@H](CC[C@@H]4[C@@]5(C)CC[C@H](O)C(C)(C)[C@@H]5CC[C@]43C)[C@@H]12,inactive,
